This is one part of the list. At the low end of the ranking, values are background and their order means little.

The experiment deals with T1, GST-NbGlk1(82-244).
T1 sequence: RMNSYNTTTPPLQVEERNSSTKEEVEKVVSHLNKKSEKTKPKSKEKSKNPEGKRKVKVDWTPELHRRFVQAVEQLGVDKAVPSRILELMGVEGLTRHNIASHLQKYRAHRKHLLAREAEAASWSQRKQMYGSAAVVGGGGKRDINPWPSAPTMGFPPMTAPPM
Kind of experiment: protein-binding microarray.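 Further: rank-based score ranging −0.5 to +0.5 with E above 0.45 taken as significant binding.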 The following applies: NbGlk1 is a Golden2-like transcription factor of Nicotiana benthamiana; high values mean tight binding; most listed sequences are background and not binding sites; double strand, one strand shown.
For the sequence ACCGGCTG, the binding signal was -0.227 E-score. Then AGAACCCA, with -0.0964 E-score. The figure for AGGCTTTG is -0.116 E-score; for CACCGAGA it is 0.078 E-score; for AAGAACCG it is -0.0573 E-score. The figure for AGTTATCG is -0.0524 E-score; for AAATGTGA it is 0.0267 E-score. Regarding AATGGTAC, the binding signal was 0.0533 E-score.

AGCGTATA had a binding signal of 0.00126 E-score. Turning to CAATAGGG, the binding signal was -0.00678 E-score. Turning to AACCGTAT, the binding signal stood at 0.0843 E-score.

The sequence ATAAGCCG registered a binding signal of -0.105 E-score.

ACGGTACG gave a binding signal of -0.0118 E-score.

The sequence ACGTTCGG gave a binding signal of -0.0348 E-score. Regarding ACTCAGAT, the binding signal worked out at 0.255 E-score. Then AATGATAG, with 0.106 E-score; and ACCGCTAT, with -0.0288 E-score; and AAAGGAAC, with -0.0795 E-score. CAAAAAGG: the binding signal worked out at 0.0237 E-score.

AAACTGAG came in with a binding signal of -0.057 E-score.

ACCGCACA showed a binding signal of -0.015 E-score.

In the case of ATGCGGTG, the binding signal is -0.0278 E-score. In the case of ACTGTTCA, the binding signal is -0.104 E-score. On to AAAGAGGG, for which the binding signal was -0.194 E-score. As to ATGACTTC, the binding signal was -0.214 E-score. Turning to ATCATCCC, the binding signal amounted to 0.0621 E-score. AGTTTCGA displayed a binding signal of -0.0151 E-score. The figure for AGGTCGTA is -0.0567 E-score. ACACGGCT yielded a binding signal of -0.235 E-score. Then ATCCTCTC, with 0.187 E-score; and AACCATAT, with 0.128 E-score; and AACCACCA, with -0.055 E-score. In the case of CACAGCTA, the binding signal was -0.152 E-score. Take ATTAGAGG: the binding signal was -0.0306 E-score. Turning to ACCGTCGT, the binding signal was -0.14 E-score. The sequence AAAGTATC had a binding signal of 0.243 E-score. AACAAGTG had a binding signal of -0.149 E-score. Then ACTCATGG, with -0.139 E-score; and ACGCGGGG, with -0.168 E-score; and AGCGTGGA, with 0.0641 E-score. The figure for ACTTGGCC is -0.116 E-score; for AGTAGTTC it is 0.022 E-score.

ACCACCCA registered a binding signal of -0.0673 E-score. AAGCATAC gave a binding signal of -0.104 E-score. The figure for ACGTAGAG is 0.031 E-score.

As for AATCGGTC, the binding signal was determined as 0.172 E-score. Take AGACCTGC: the binding signal was -0.184 E-score. The sequence ACAATAAC showed a binding signal of -0.0904 E-score. The figure for AGCGCTGA is -0.0479 E-score. Turning to ATCGGGCA, the binding signal worked out at 0.111 E-score. The figure for ACGATGCA is -0.0293 E-score; for AAGTATGA it is 0.0906 E-score. Regarding ATCAGTTA, the binding signal stood at 0.121 E-score. Regarding AACGTGCG, the binding signal was -0.114 E-score.

In turn, CAACACAA displayed a binding signal of 0.0838 E-score.

In the case of ACGGAGCC, the binding signal was -0.13 E-score. AGAAAATC: the binding signal was 0.479 E-score. Regarding AACCCTCC, the binding signal was -0.242 E-score. Sequence AACACTTA displayed a binding signal of 0.0934 E-score. In turn, AGTAGGCA gave a binding signal of -0.108 E-score.

AAACCCAC returned a binding signal of -0.198 E-score. On to CAATGATA, for which the binding signal turned out to be 0.127 E-score.

For CACACATG, the binding signal was -0.132 E-score.

AGAAGAGA registered a binding signal of 0.0203 E-score.

Sequence CAATAGCC had a binding signal of -0.0908 E-score. On to ACAGGTAA, for which the binding signal was 0.0116 E-score. Consider AAGATCAG, for which the binding signal turned out to be 0.222 E-score. AGGATCAA showed a binding signal of -0.00503 E-score. Then AATAAACG, with 0.0778 E-score; and ATATGGTA, with 0.228 E-score; and CAAGCGAG, with -0.113 E-score.

Sequence ATTCCGGA returned a binding signal of 0.232 E-score. In the case of AGGCCTTA, the binding signal is -0.0972 E-score.

For the sequence AGTCATAA, the binding signal was found to be 0.0167 E-score. Then CAGAGTCA, with -0.0451 E-score.

In the case of AGTGTGGG, the binding signal was -0.0288 E-score.

In turn, CACAACGC yielded a binding signal of -0.0957 E-score.

In turn, ATGTGTAA displayed a binding signal of 0.176 E-score.

Regarding ACGTACGG, the binding signal was -0.0688 E-score. For ATCACCCC, the binding signal is -0.0506 E-score.

With AGCATTCA, the binding signal is -0.0872 E-score. AACCTCGA: the binding signal worked out at 0.0076 E-score. On to AACGCCCT, for which the binding signal was -0.233 E-score.

Sequence AATCCTGT yielded a binding signal of 0.371 E-score. ACAACTGC had a binding signal of -0.0596 E-score. Take CAATTTCG: the binding signal worked out at 0.206 E-score. In turn, ACCATGCT came in with a binding signal of 0.0139 E-score.

Turning to ATGCAAGA, the binding signal was found to be 0.106 E-score.

In turn, ACGCCCAC showed a binding signal of -0.167 E-score. ATGTGACA: the binding signal is 0.0405 E-score. Take AGTGCAGG: the binding signal is -0.171 E-score. In turn, CACCTGCA gave a binding signal of -0.0836 E-score.

Consider AAGTCGTA, for which the binding signal was -0.0359 E-score. In turn, ACAGAAAA returned a binding signal of 0.181 E-score. As for AGTCCCAT, the binding signal was -0.178 E-score. Regarding AACATGGG, the binding signal was -0.116 E-score. The figure for AATCAGTA is 0.268 E-score; for AAGTACCA it is -0.15 E-score; for AGGCCTAC it is -0.237 E-score.

ACTTTGAG: the binding signal was -0.0814 E-score.

Consider ACTGCCTC, for which the binding signal was -0.282 E-score. Turning to AACTAACT, the binding signal is -0.0316 E-score. AGCGAGCT yielded a binding signal of -0.214 E-score. In the case of AAGGTTCC, the binding signal was -0.186 E-score.

ATACAGAG came in with a binding signal of 0.14 E-score. The figure for ACTACAGA is 0.0769 E-score.

ATGCACCC displayed a binding signal of -0.169 E-score.

Consider AAATATCG, for which the binding signal was found to be 0.375 E-score. With ATCAGGCA, the binding signal amounted to 0.137 E-score. AGACTTTG came in with a binding signal of -0.0551 E-score. The sequence ACAGATCC yielded a binding signal of 0.234 E-score. In the case of CACAGCAA, the binding signal is 0.123 E-score. As for ACGCAGCT, the binding signal is -0.239 E-score.

In the case of AGGACCAT, the binding signal was -0.168 E-score.

Turning to CAAGCCGC, the binding signal was -0.248 E-score. Take ATGCATTA: the binding signal was -0.0288 E-score. AGCACTCA: the binding signal was 0.0146 E-score. AAGGGTAT: the binding signal was 0.0646 E-score. In turn, AATATTGA yielded a binding signal of 0.222 E-score. For AACGTCCT, the binding signal is -0.253 E-score.

In the case of CAATGCGG, the binding signal is -0.159 E-score.

ACTAATGA had a binding signal of 0.00719 E-score. As for AGAGTTAC, the binding signal is -0.00533 E-score. Sequence ATAGGGAG gave a binding signal of -0.0387 E-score. ACGCTTTA showed a binding signal of 0.0231 E-score. Turning to ACTGAAAC, the binding signal amounted to 0.0347 E-score. Regarding AACCTCTC, the binding signal is -0.255 E-score. ATGTAGTC came in with a binding signal of -0.129 E-score. The sequence AGTGACGG displayed a binding signal of -0.213 E-score. Sequence ATTTACGC showed a binding signal of 0.168 E-score.

On to CAGAACAC, for which the binding signal is -0.161 E-score. AAAATAAC: the binding signal came to 0.191 E-score. Turning to ATTTGCAG, the binding signal stood at 0.269 E-score. In turn, ATACTCTC registered a binding signal of 0.163 E-score. AGTTACAT returned a binding signal of 0.145 E-score. AAGACTTG showed a binding signal of -0.0477 E-score. Sequence AAGTCAGC returned a binding signal of -0.15 E-score. Regarding ACTGGGCA, the binding signal is -0.242 E-score.

Turning to ACTGATTC, the binding signal was found to be 0.285 E-score. Sequence ACATGAGA came in with a binding signal of 0.198 E-score. ACATGAAG showed a binding signal of -0.053 E-score. Take AATATGTC: the binding signal worked out at 0.115 E-score. ACTACTCA: the binding signal was -0.0238 E-score. In turn, ACTTCAAG returned a binding signal of -0.136 E-score.

As for ACAGGGAC, the binding signal is -0.154 E-score. Take ATGGGAAA: the binding signal was 0.0974 E-score. Regarding AGATCCCA, the binding signal was 0.219 E-score. The figure for AAAGATTC is 0.401 E-score; for AGCGTTTA it is -0.105 E-score; for AATCCCTC it is 0.293 E-score.

Sequence ATATGCAG returned a binding signal of 0.169 E-score. On to AGACCCCT, for which the binding signal was -0.225 E-score. On to AAGTATAT, for which the binding signal stood at 0.115 E-score. The sequence CAAAGACC returned a binding signal of -0.117 E-score. Consider CACAGCGC, for which the binding signal was -0.0588 E-score. Regarding AAGCTTGG, the binding signal was -0.0876 E-score. Take AAATTGTG: the binding signal came to 0.0929 E-score.

ACTCTTTC displayed a binding signal of -0.0578 E-score. The figure for ACAAGTTC is -0.169 E-score; for ACCAAGTC it is -0.189 E-score.

On to ATGCTAAA, for which the binding signal came out at 0.0528 E-score. In turn, ATCATAGG displayed a binding signal of 0.0467 E-score. As to ATATTTTG, the binding signal was 0.274 E-score.

ACTTCCGC yielded a binding signal of -0.165 E-score.

Consider ACGGTTCT, for which the binding signal is -0.115 E-score. As for AGGGCTGC, the binding signal is -0.244 E-score. ATCATGAC showed a binding signal of 0.0994 E-score. Sequence AACGACGC had a binding signal of -0.211 E-score. In turn, ACTATAGG displayed a binding signal of 0.00817 E-score. CAGATGTC: the binding signal was -0.0223 E-score. The sequence ATAGCGTC showed a binding signal of -0.0235 E-score.

The sequence CACCAAAG displayed a binding signal of 0.0206 E-score.

These data come from PMC5836133.
